Test systems include SR leukemia; A549 NSCLC; SF-268 CNS; M14 melanoma; NCI-H226 lung; OVCAR-3 ovarian; IGROV1 ovarian; OVCAR-8 ovarian; NCI-H522 lung; NCI-H23 lung; NCI-H460 lung; RPMI-8226 leukemia; OVCAR-5 ovarian; K-562 leukemia; TK-10 renal; UACC-62 melanoma; CAKI-1 renal; MCF7 breast; SK-MEL-5 melanoma; SNB-78 CNS; SK-MEL-2 melanoma; MOLT-4 leukemia; UO-31 renal; LXFL 529 NSCLC; MDA-MB-435; KM20L2 colon; CCRF-CEM leukemia; LOX IMVI melanoma; SN12C renal; HOP-62 NSCLC; SF-295 CNS; MDA-N; HL-60(TB) leukemia; DLD-1 colon; COLO 205 colon; HCT-15 colon; U251 CNS; SK-OV-3 ovarian; HOP-18 NSCLC; MALME-3M melanoma; UACC-257 melanoma; P388/ADR leukemia; SNB-19 CNS; SW-620 colon; HT29 colon; P388 leukemia; SN12K1 renal; NCI/ADR-RES ovarian; DMS 273 small cell lung; HCT-116 colon; OVCAR-4 ovarian; ACHN renal; A498 renal.

What all share (experiment): NCI tumour cell line growth inhibition, 48 h

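All cell lines were grown in 96-well plates and treated with compound for 48 hours. Abbreviation: GI50, concentration required for 50% inhibition of growth.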 The source holds more than one record for some entries. This is not the full list of results. The source may hold further records. For some assays here: Records of one sample usually come from different ranges of test concentrations, not given here; a value can be the end of its range.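 Definition used: TGI = concentration required for complete inhibition of growth.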 For some assays here: The values listed for one entry are repeated measurements (runs, samples, wells, individuals or studies). Brackets tell where a record comes from. A, B and so on number the origins entry by entry. Where only a bound is given, the exact number is not on record here.

Regarding `C[C@@H]1COCCN1c1cc(-c2ccnn2C)c2ccnc(-c3ccn[nH]3)c2n1`, the TGI in the test with SR leukemia was 1.08 µM [sample A, 1 test] and > 100 µM [sample B, 1 test]; with A549 NSCLC it was 1.98 µM [sample A, mean of 2 tests] and > 100 µM [sample B, mean of 2 tests]; in the test on SF-268 CNS, 9.96 µM [sample A, mean of 2 tests] and > 100 µM [sample B, mean of 2 tests]; in the test with M14 melanoma, 225 nM [sample A, mean of 2 tests] and 3.58 µM [sample B, mean of 2 tests]; in the test on NCI-H226 lung, 3.19 µM [sample A, 1 test] and > 36 µM [sample B, mean of 2 tests]; in the test on OVCAR-3 ovarian it was 6.01 µM [sample A, mean of 2 tests] and > 100 µM [sample B, mean of 2 tests]. Also, the TGI with IGROV1 ovarian is 1.92 µM [sample A, mean of 2 tests] and > 20.5 µM [sample B, mean of 2 tests]; in the test on OVCAR-8 ovarian, 4.7 µM [sample A, mean of 2 tests] and > 47.8 µM [sample B, mean of 2 tests]; in the test with NCI-H522 lung it was 4.08 µM [sample A, mean of 2 tests] and > 81.6 µM [sample B, mean of 2 tests]; with NCI-H23 lung, 1.65 µM [sample A, mean of 2 tests] and > 38 µM [sample B, mean of 2 tests]; in the test with NCI-H460 lung it was 6.23 µM [sample A, mean of 2 tests] and > 100 µM [sample B, mean of 2 tests].
As to `COc1cccc2c1C(=O)c1c(O)c3c(c(O)c1C2=O)C[C@@](O)(C(=O)CO)C[C@@H]3OC1CC(N2CCOCC2C#N)C(O)C(C)O1` (stereo partly specified), the TGI is 1.61 nM, 0.271 nM, 20.7 nM in the test on RPMI-8226 leukemia; 0.126 nM [mean of 4 tests] and 0.447 nM, 20.1 nM [mean of 8 tests] in the test on OVCAR-5 ovarian; 0.0498 nM and 4.88 nM in the test on SR leukemia; 0.25 nM, 1.31 nM, 1.14 nM, 21.9 nM, 4.58 µM with K-562 leukemia; 2.73 nM [mean of 2 tests] and 1.7 µM [mean of 3 tests] and 10.4 nM [mean of 4 tests] in the test with TK-10 renal; 0.0002 nM, 0.0857 nM, 0.0373 nM in the test on UACC-62 melanoma. Besides, the TGI in the test with A549 NSCLC was 0.25 nM [1 test] and 6.32 µM [mean of 3 tests] and 2.6 nM [mean of 4 tests] and 0.000164 nM [mean of 5 tests] and 20 nM [mean of 7 tests] and 1.14 µM [mean of 9 tests]; with CAKI-1 renal, 0.000105 nM [1 test] and 0.0002 nM [mean of 3 tests] and 91.8 nM [mean of 4 tests] and 2.94 nM [mean of 6 tests] and 1.07 nM [mean of 7 tests]; in the test with MCF7 breast, 0.25 nM, 6.43 nM, 406 nM; in the test on SK-MEL-5 melanoma it was 6.5e-05 nM, 0.204 nM, 0.127 nM; in the test with SNB-78 CNS it was 0.0469 nM, 2.55 nM, 5.74 nM, 3.61 µM, 6.13 nM; in the test on SK-MEL-2 melanoma, 2.1e-05 nM, 0.382 nM, 0.259 nM. Further, the TGI is 0.0002, 0.25, 0.77, 0.136, 628 nM in the test on MOLT-4 leukemia; 0.0002 nM, 5e-05 nM, 2.11 nM, 1.65 nM, 8.08 nM, 46.9 nM in the test with SF-268 CNS; 7.5e-05 nM, 0.451 nM, 0.21 nM, 3.99 nM with UO-31 renal; 2.7 nM and 1.05 µM with LXFL 529 NSCLC; 0.0664 nM [mean of 3 tests] and 0.0002 nM [mean of 5 tests] and 0.0833 nM [mean of 8 tests] in the test with NCI-H226 lung; 0.0223 nM and 0.492 nM in the test with MDA-MB-435. In addition, the TGI in the test with KM20L2 colon is 1.86, 1.02, 359, 413 nM; with CCRF-CEM leukemia it was 0.0002, 1.33, 1.8, 2.69, 252 nM; in the test with LOX IMVI melanoma, 0.0002, 0.00502, 0.514, 0.0724, 25.3, 28 nM; in the test on SN12C renal, 0.0002 nM, 0.25 nM, 2.5 nM, 4.19 nM, < 108 nM, 881 nM; in the test on HOP-62 NSCLC, 0.000199, 0.2, 0.152, 8.76 nM; in the test on SF-295 CNS, 1.32 nM [mean of 4 tests] and 7.3e-05 nM [mean of 5 tests] and 0.105 nM [mean of 7 tests]. For the same molecule, the TGI is 0.0268 nM and 0.491 nM in the test on MDA-N; 0.0002 nM, 0.352 nM [mean of 5 tests] and 0.218 nM [mean of 9 tests] with HL-60(TB) leukemia; 0.25, 4.98, 0.822, 207 nM in the test with DLD-1 colon; 8.6e-05 nM, 0.465 nM, 0.386 nM in the test on COLO 205 colon; 0.25 nM [1 test] and 2.41 nM [mean of 2 tests] and 215 nM [mean of 3 tests] and 352 nM [mean of 8 tests] and 3.12 nM [mean of 9 tests] in the test on HCT-15 colon; 1.47 nM, 464 nM [mean of 3 tests] and 0.0972 nM, 99.5 nM [mean of 5 tests] in the test with OVCAR-3 ovarian. In addition, the TGI in the test with U251 CNS is 1.02 µM [mean of 3 tests] and 0.0002 nM, 6.04 nM [mean of 4 tests] and 6.1 nM [mean of 5 tests] and 307 nM [mean of 9 tests]; in the test on SK-OV-3 ovarian it was 0.25 nM [1 test] and 6.26 nM, 1.83 nM [mean of 3 tests] and 15.6 nM [mean of 6 tests] and 57.6 nM [mean of 8 tests]; with HOP-18 NSCLC, 1.67, 0.779, 17.8, 84.6 nM; in the test with MALME-3M melanoma it was 3.7e-05 nM, 0.247 nM, 0.81 nM; in the test with UACC-257 melanoma, 0.228 nM, 0.263 nM, 7.16 nM; with P388/ADR leukemia, 250 nM [mean of 2 tests] and 0.0002 nM [mean of 5 tests] and 0.139 nM [mean of 6 tests]. Further, the TGI in the test on SNB-19 CNS is 2.56 nM, 20 nM, 573 nM, 2.88 µM; with SW-620 colon, 0.000124 nM, 0.25 nM, 1.65 nM, 10.7 nM, 608 nM, 1.29 µM; in the test on HT29 colon, 0.0002 nM, 0.25 nM, 5.19 nM, 0.862 nM, 4.75 µM, 265 nM; in the test with P388 leukemia it was 0.0002, 0.25, 0.0387, 628 nM; in the test on SN12K1 renal it was 0.25 nM [1 test] and 0.786 nM [mean of 3 tests] and 6.25 nM [mean of 6 tests]; with NCI/ADR-RES ovarian, 6.7e-05 nM, 1.1 nM [1 test] and 2.03 nM [mean of 10 tests] and 8.5e-05 nM [mean of 5 tests]. In addition, the TGI with IGROV1 ovarian is 9.9e-05 nM, 0.25 nM, 5.97 nM, 7.16 nM, 447 nM, 2.1 µM; in the test with DMS 273 small cell lung, 6.2e-05 nM, 0.19 nM, 0.0964 nM; in the test on OVCAR-8 ovarian, 1.94 nM, 10.4 nM [mean of 4 tests] and 6.8e-05 nM [mean of 5 tests] and 19.2 nM [mean of 7 tests] and 6.02 nM [mean of 9 tests]; in the test with HCT-116 colon, 0.25 nM, 5.88 nM, 7.24 nM, 42.4 nM, 5.35 µM; in the test on OVCAR-4 ovarian, 0.0002 nM, 0.319 nM [mean of 5 tests] and 0.647 nM [mean of 9 tests]; in the test on ACHN renal, 0.147 nM [mean of 3 tests] and 2.88 nM [mean of 4 tests]. Besides, the TGI with NCI-H23 lung was 0.108 nM, 0.122 nM, 11.6 nM; in the test with NCI-H460 lung, 4.15 nM, 132 nM [mean of 3 tests] and 0.0002 nM, 0.471 nM [mean of 5 tests] and 7.2 nM [mean of 8 tests]. In addition, the GI50 in the test on P388/ADR leukemia is 2.5 nM [mean of 2 tests] and 3.1e-05 nM [mean of 5 tests] and 0.00743 nM [mean of 6 tests].
Take `COc1cccc2c1[C@H]1CO[C@H]3C4C[C@H](C(=O)O)C([C@@H](C2)N13)N4C` (stereo partly specified): the GI50 is 75.5 nM [1 test] and 3.59 µM [mean of 3 tests] in the test on RPMI-8226 leukemia; 233 nM [1 test] and 5.37 µM [mean of 4 tests] with A498 renal. For the same molecule, the TGI in the test with RPMI-8226 leukemia was > 100 µM [1 test] and 9.2 µM [mean of 3 tests]; with K-562 leukemia, 5.03 µM and > 100 µM; in the test on UACC-62 melanoma it was 2.14 µM and 186 nM; in the test on MOLT-4 leukemia, 8.09 µM and > 100 µM; in the test with CCRF-CEM leukemia it was > 100 µM [1 test] and 7.87 µM [mean of 3 tests]; in the test on A498 renal, 584 nM [1 test] and 9.14 µM [mean of 4 tests].
In the case of `C=CCn1c(=O)c2cnc(Nc3ccc(N4CCN(C)CC4)cc3)nc2n1-c1cccc(C(C)(C)O)n1`, the TGI with CCRF-CEM leukemia is 16.6 µM [sample A, mean of 2 tests] and 1.52 µM [sample B, mean of 2 tests].

(Values after PubChem BioAssay (NCI).)
